Assay results taken from PubChem BioAssay AID624171 (National Center for Advancing Translational Sciences (NCATS), 2012).
The campaign covered roughly 410,000 compounds. About 1,200 (0.29%) were called active. This list was built around the results that the source calls inconclusive (neither active nor inactive); the mix of calls is not that of the screen. Calls come from the whole dose curve; as a rule, active = well fitted activation curve with a large enough effect; inconclusive = small, poorly fitted or top-dose-only effect; inactive = flat fitted curve, though single readings scatter. Potencies of inconclusive entries are doubtful fits and often do not repeat.

experiment: qHTS of Nrf2 Activators; settings: AREc32 ARE-luciferase reporter (MCF7-derived line), luminescence, 24 h; activation: at 46.1 µM (top of the series); note: nearly all actives have a fitted effect of over 65% in size; for activation: % of control where 0% means no effect
Summary of the method: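 Cells of the AREc32 ARE-luciferase line are plated in OPTI-MEM containing 5% FBS and left overnight at 37 deg C. Compounds are pinned in, incubation continues 24 hr, and firefly luciferase signal is then measured.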
Potency is the fitted concentration of half-maximal effect; tags give direction and shape of the fitted curve.

Potency, active:
Cc1sc2c(c1C)CN(C(C)(C)C)CN2C(=O)c1ccccc1 11.2 µM, O=C(/C=C/Nc1ccccc1O)c1ccco1 11.2 µM, CCc1cccc(NC(=O)Cn2c(=O)n3nc(-c4cccc(F)c4)nc3c3ccccc32)c1 5.62 µM, O=C(Nc1nc2c(F)cccc2s1)c1ccc([N+](=O)[O-])o1 10 µM, O=C(CC(=O)c1ccccc1)c1ccccc1 14.1 µM

Potency, inconclusive:
Cc1ccc2oc(-c3ccco3)cc(=O)c2c1 20 µM [activator, partial curve, poor fit], O=C(NCc1ccco1)c1sc2cc(Cl)ccc2c1Cl 22.4 µM [activator, single point], Cc1cc(NC(=O)CC(F)(F)F)n(-c2ccccc2)n1 22.4 µM [activator, single point], CC(C)Cn1c(N)c(C(=O)COC(=O)c2ccc([N+](=O)[O-])o2)c(=O)n(C)c1=O 3.16 µM [activator, single point], O=c1c(C=NCc2ccccc2)c(NCc2ccccc2)nc2ccccn12 7.08 µM [activator, partial curve], CCOC(=O)/C=C/COc1ccccc1[N+](=O)[O-] 22.4 µM [activator, partial curve, poor fit], Cn1ccsc1=NC(=O)c1ccc([N+](=O)[O-])o1 2.82 µM [activator, full curve, poor fit], CC1(C)Oc2ccc3ccc(=O)oc3c2-c2cn[nH]c21 15.8 µM [activator, single point]

activation, inactive:
COc1cc(/C=c2\sc3nc(=O)c(-c4ccccc4)nn3c2=O)ccc1OCCC(C)C 0.0131%, COc1ccc(CNC(=O)Cc2coc3ccc(C)cc23)cc1 8.64%, CCC(CO)Oc1cc(NCc2ccc(Cl)cc2)c2ncn(C(C)C)c2c1 (configuration not stated) -2%, COc1ccc(OC)c(C2CC(=O)c3c([nH]c(C(=O)OCc4ccc(C)cc4)c3C)C2)c1 (configuration not stated) -0.625%, COc1ccc(C(CNC(=O)c2oc3ccc(Br)cc3c2C)N2CCCCC2)cc1 (configuration not stated) 0.236%, Cc1cc(C)c(NC(=O)Cn2c(=O)oc3cc(S(=O)(=O)N4CCCCCC4)ccc32)c(C)c1 -0.412%, CCOc1ccc(-c2cc(NC(=O)c3ccccc3)c(C(=O)OC)s2)cc1 -0.4%, COc1ccc2[nH]c3c(c2c1)CCN1C(=O)C(CC(=O)NCCCn2ccnc2)C[C@H](C(=O)N2CCOCC2)[C@@]31CCC1CCCC1 (some centres not stated) 2.78%, O=C(NCCSc1c[nH]c2ccccc12)c1ccc(Br)o1 0.276%
